Laboratory results published in the supplement of paper PMC4604168 (melanoma cell lines).
The other results are listed elsewhere or left out. Most values come without repeats; read them as rough.

Key:
Test in all cases: cell count relative to DMSO control; melanoma cells; higher = more viable cells
Conditions in all cases: library dose: low library concentration; 72 h
[1] = test system: MZ2-MEL
[2] = test system: MeWo
[3] = test system: RPMI7951
[4] = test system: RVH-421
[5] = test system: SkMel28
[6] = test system: SkMel2
[7] = test system: SkMel30
[8] = test system: UACC62
[9] = test system: SkMel5
[10] = test system: UACC257
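Also: cell number obtained by counting DAPI-stained nuclei in high-throughput microscope images with image analysis software, screen run in 1,536-well plates.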

SMILES	cell count [1]	cell count [2]	cell count [3]	cell count [4]	cell count [5]	cell count [6]	cell count [7]	cell count [8]	cell count [9]	cell count [10]
CNC(=O)c1cc(Oc2ccc(NC(=O)Nc3ccc(Cl)c(C(F)(F)F)c3)cc2)ccn1 [sorafenib] + C[As](C)SC[C@H](NC(=O)CC[C@H](N)C(=O)O)C(=O)NCC(=O)O [Darinaparsin] (first compound 0.4 µM, partner dose 0.4 µM)	78.5%	78.1%	92.5%	78.8%	95.4%	95.6%	92%	75.9%	–	–
O=C(Nc1cc(C(F)(F)F)cc(C(F)(F)F)c1)c1cc(Cl)ccc1O + Cn1cc(C2=C(c3cn(C4CCN(Cc5ccccn5)CC4)c4ccccc34)C(=O)NC2=O)c2ccccc21 [Enzastaurin] (first compound 0.016 µM, partner dose 0.8 µM)	120%	113%	114%	101%	122%	113%	130%	125%	–	–
CC1(C)CCC(c2ccc(Cl)cc2)=C(CN2CCN(c3ccc(C(=O)NS(=O)(=O)c4ccc(N[C@H](CCN5CCOCC5)CSc5ccccc5)c(S(=O)(=O)C(F)(F)F)c4)cc3)CC2)C1 + Cn1cc(C2=C(c3cn(C4CCN(Cc5ccccn5)CC4)c4ccccc34)C(=O)NC2=O)c2ccccc21 [Enzastaurin] (first compound 0.4 µM, partner dose 0.8 µM)	99.2%	87.7%	60.2%	60.4%	104%	88.3%	64.2%	94.9%	–	–
C[C@@H](Oc1cc(-c2cnn(C3CCNCC3)c2)cnc1N)c1c(Cl)ccc(F)c1Cl [Crizotinib] + C[As](C)SC[C@H](NC(=O)CC[C@H](N)C(=O)O)C(=O)NCC(=O)O [Darinaparsin] (first compound 0.2 µM, partner dose 0.4 µM)	106%	89.2%	95.2%	104%	103%	89.9%	103%	100%	–	–
CCCCCCCCCCCCCCCCCCOP(=O)([O-])OC1CC[N+](C)(C)CC1 [Perifosine] + C[As](C)SC[C@H](NC(=O)CC[C@H](N)C(=O)O)C(=O)NCC(=O)O [Darinaparsin] (first compound 0.4 µM, partner dose 0.4 µM)	110%	80.5%	55.2%	98.2%	83.6%	110%	80.4%	97.1%	–	–
Cn1cnc2c(F)c(Nc3ccc(Br)cc3Cl)c(C(=O)NOCCO)cc21 [selumetinib] + N.N.[Cl][Pt][Cl] [cisplatin] (first compound 0.015 µM, partner dose 1.6 µM)	103%	103%	105%	88.5%	85%	83.2%	77.5%	78.6%	–	–
COC(=O)c1sccc1S(=O)(=O)Nc1ccc(Nc2ccccc2)cc1OC + O=C(Oc1ccc([N+](=O)[O-])cc1)N1CCC(C(O)(c2ccc3c(c2)OCO3)c2ccc3c(c2)OCO3)CC1 [JZL184] (first compound 1 µM, partner dose 1 µM)	97.4%	90.8%	102%	95.3%	97.3%	–	102%	108%	100%	107%
O=C(Nc1cc(C(F)(F)F)cc(C(F)(F)F)c1)c1cc(Cl)ccc1O + C[As](C)SC[C@H](NC(=O)CC[C@H](N)C(=O)O)C(=O)NCC(=O)O [Darinaparsin] (first compound 0.016 µM, partner dose 0.4 µM)	107%	86.1%	128%	88.8%	103%	109%	112%	90.4%	–	–
C/C(O)=C(\C#N)C(=O)Nc1cc(Br)ccc1Br + O=C1NC(=O)/C(=C/c2ccc(-c3ccc(F)cc3O)o2)S1 [AS252424] (first compound 2 µM, partner dose 1 µM)	106%	113%	105%	105%	85.4%	–	107%	96.7%	88.9%	93%
C=C(c1ccc(C(=O)O)cc1)c1cc2c(cc1C)C(C)(C)CCC2(C)C [Bexarotene] + C[As](C)SC[C@H](NC(=O)CC[C@H](N)C(=O)O)C(=O)NCC(=O)O [Darinaparsin] (first compound 2 µM, partner dose 0.4 µM)	92.8%	78.9%	72.4%	97.4%	81.8%	88.9%	90.4%	101%	–	–
COc1cc2c(Oc3ccc4[nH]c(C)cc4c3F)ncnc2cc1OCCCN1CCCC1 [cediranib] + Cc1cc(SCc2sc(-c3ccc(C(F)(F)F)c(F)c3)nc2C)ccc1OCC(=O)O [GW0742] (first compound 0.4 µM, partner dose 2 µM)	101%	112%	110%	99.9%	99.1%	–	100%	95.4%	90.2%	101%
Cn1cnc2c(F)c(Nc3ccc(Br)cc3Cl)c(C(=O)NOCCO)cc21 [selumetinib] + Cn1cc(C2=C(c3cn(C4CCN(Cc5ccccn5)CC4)c4ccccc34)C(=O)NC2=O)c2ccccc21 [Enzastaurin] (first compound 0.015 µM, partner dose 0.8 µM)	87.7%	98.2%	111%	76%	99.2%	71.9%	54.9%	87%	–	–
CCCCCCCCCCCCCCCCCCOP(=O)([O-])OC1CC[N+](C)(C)CC1 [Perifosine] + Cn1cc(C2=C(c3cn(C4CCN(Cc5ccccn5)CC4)c4ccccc34)C(=O)NC2=O)c2ccccc21 [Enzastaurin] (first compound 0.4 µM, partner dose 0.8 µM)	102%	100%	78.8%	75%	106%	100%	109%	92.5%	–	–
NC1(c2ccc(-c3nc4ccn5c(=O)[nH]nc5c4cc3-c3ccccc3)cc2)CCC1 + N.N.[Cl][Pt][Cl] [cisplatin] (first compound 0.4 µM, partner dose 1.6 µM)	103%	85.2%	90.2%	79.2%	68.2%	90.6%	93.6%	62.9%	–	–
O=c1[nH]nc(Sc2ncc([N+](=O)[O-])s2)n1-c1ccc2c(c1)OCCO2 + Cn1cc(C2=C(c3cn(C4CCN(Cc5ccccn5)CC4)c4ccccc34)C(=O)NC2=O)c2ccccc21 [Enzastaurin] (first compound 0.2 µM, partner dose 0.8 µM)	102%	104%	106%	112%	98.8%	114%	114%	123%	–	–
Cn1sc(=O)n(Cc2ccccc2)c1=O + C[As](C)SC[C@H](NC(=O)CC[C@H](N)C(=O)O)C(=O)NCC(=O)O [Darinaparsin] (first compound 0.4 µM, partner dose 0.4 µM)	106%	108%	103%	99.8%	113%	93%	99.1%	107%	–	–
O=C(Nc1cccc(Cl)c1)Nc1ncc(CCNc2ncnc3ccsc23)s1 + O=C(Oc1ccc([N+](=O)[O-])cc1)N1CCC(C(O)(c2ccc3c(c2)OCO3)c2ccc3c(c2)OCO3)CC1 [JZL184] (first compound 0.0008 µM, partner dose 1 µM)	96.7%	94%	101%	95.9%	79.7%	–	100%	72.9%	88.1%	92.9%
C[C@]1(c2nc3c(C(N)=O)cccc3[nH]2)CCCN1 [Veliparib] + Cc1cc(SCc2sc(-c3ccc(C(F)(F)F)c(F)c3)nc2C)ccc1OCC(=O)O [GW0742] (first compound 1.4 µM, partner dose 2 µM)	101%	91.8%	90.5%	84.2%	89.6%	–	104%	81.5%	93.6%	95.2%
COc1ccc(C2=N[C@@H](c3ccc(Cl)cc3)[C@@H](c3ccc(Cl)cc3)N2C(=O)N2CCNC(=O)C2)c(OC(C)C)c1 [Nutlin-3] + C[As](C)SC[C@H](NC(=O)CC[C@H](N)C(=O)O)C(=O)NCC(=O)O [Darinaparsin] (first compound 0.1 µM, partner dose 0.4 µM)	104%	95.5%	102%	83.6%	78.6%	112%	126%	80.1%	–	–
OCCn1cc(-c2cnc3nnn(Cc4ccc5ncccc5c4)c3n2)cn1 + O=C(Oc1ccc([N+](=O)[O-])cc1)N1CCC(C(O)(c2ccc3c(c2)OCO3)c2ccc3c(c2)OCO3)CC1 [JZL184] (first compound 1 µM, partner dose 1 µM)	110%	117%	98.1%	106%	101%	–	96%	107%	89.2%	99.2%
CCCCCCCCc1ccc(CCC(N)(CO)CO)cc1 [fingolimod] + C[As](C)SC[C@H](NC(=O)CC[C@H](N)C(=O)O)C(=O)NCC(=O)O [Darinaparsin] (first compound 2 µM, partner dose 0.4 µM)	102%	82.8%	80.6%	84.5%	81.8%	98.2%	91.2%	82.9%	–	–
Cn1sc(=O)n(Cc2ccccc2)c1=O + N.N.[Cl][Pt][Cl] [cisplatin] (first compound 0.4 µM, partner dose 1.6 µM)	93.5%	97.3%	90.9%	86.7%	106%	83.9%	81.4%	91.8%	–	–
CC1(C)CCC(c2ccc(Cl)cc2)=C(CN2CCN(c3ccc(C(=O)NS(=O)(=O)c4ccc(N[C@H](CCN5CCOCC5)CSc5ccccc5)c(S(=O)(=O)C(F)(F)F)c4)cc3)CC2)C1 + C[As](C)SC[C@H](NC(=O)CC[C@H](N)C(=O)O)C(=O)NCC(=O)O [Darinaparsin] (first compound 0.4 µM, partner dose 0.4 µM)	103%	75.6%	68.2%	69.8%	92.4%	100%	90.2%	105%	–	–
